Reference: PubChem BioAssay AID1346428 (National Center for Advancing Translational Sciences (NCATS), 2018)
Among all 48,000 compounds or so, about 1,200 (2.5%) were called active. About 2% were inconclusive and are not listed.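 How the source made its calls: active means activation of at least 60% and not above a set upper limit (about 1 call in 100 departs from these limits); inconclusive means activation of 40% to 60%, or above that upper limit; inactive means activation under 40%.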 Some of the results follow.

biological target: Probable G-protein coupled receptor 32 (Homo sapiens) (UniProt O75388); test: qHTS for Agonists of Human Resolvin D1 Receptor DRV1; details: CHO-K1 GPR32 beta-arrestin PathHunter luminescence, 90 min; at 76.9 µM; hits give high values; zero percent set by DMSO-only wells; further: 0% is about no effect
Summary of the method: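 Agonism was scored by beta-Gal fragment complementation (chemiluminescent read, 1 h detection at ambient temperature) reporting beta-arrestin binding to GPR32 in engineered CHO-K1 cells. Compound treatment lasted 90 min at 37 C, normalized to a DMSO basal control.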

Sequence of UniProt O75388 (O75388 whole entry, looked up, the tested form may be a part): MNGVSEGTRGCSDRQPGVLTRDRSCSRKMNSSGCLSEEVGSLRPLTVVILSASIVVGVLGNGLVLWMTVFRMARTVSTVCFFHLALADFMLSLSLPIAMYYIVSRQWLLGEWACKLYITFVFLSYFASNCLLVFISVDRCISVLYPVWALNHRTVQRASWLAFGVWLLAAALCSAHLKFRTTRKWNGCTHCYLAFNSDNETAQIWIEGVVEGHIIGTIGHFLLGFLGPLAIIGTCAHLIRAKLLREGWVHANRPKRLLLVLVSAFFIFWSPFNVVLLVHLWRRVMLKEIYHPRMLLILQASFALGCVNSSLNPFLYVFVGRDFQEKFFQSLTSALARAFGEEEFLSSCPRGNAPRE

Compound | activation
CC(C)(C)C(=O)OCc1cc(=O)n2nc(C3CCCCC3)sc2n1 | active: 79.1%
COc1cccc(CNC(=O)CSc2ncc(S(=O)(=O)c3ccc(C)c(Cl)c3)c(=O)[nH]2)c1 | inactive: -14.3%
CCn1cc(C(=O)NCCc2ccc(OC)c(OC)c2)c(=O)c2cc(S(=O)(=O)N3CCc4ccccc4C3)ccc21 | inactive: -9.42%
Cc1ncc(CO)c2c1Oc1nc(-c3ccccc3F)nc(SCC(=O)N3CCCCC3)c1C2 | inactive: 7.16%
COC(=O)c1ccccc1NC(=O)CN1C(=O)COc2ccccc21 | inactive: -3.43%
COc1cccc2cc(-c3nc(Cl)c4c5c(sc4n3)CC(C)CC5)c(=O)oc12 (configuration not stated) | inactive: 4.8%
COc1ccc(NC(=O)CSc2nc3c(c(=O)[nH]2)CN(Cc2ccccc2)CC3)cc1Cl | inactive: 37.1%
CCc1ccc(NC(=O)Cn2c(=O)n(Cc3ccccc3)c(=O)c3oc4ccccc4c32)cc1 | inactive: 0.598%
Cc1ccc(S(=O)(=O)c2cn(C)c3cc(N4CCCC4)c(F)cc3c2=O)c(C)c1 | inactive: -12.1%
CCc1ccc(NC(=O)c2cnn(-c3c(C)cccc3C)c2C2CCNCC2)cc1 | inactive: -5.31%
CCOc1cc(C(=O)Nc2c(NC)c3ccccc3oc2=O)cc(OCC)c1OCC | inactive: 3.54%
COc1ccc(CCC(=O)NCc2nc3cccnc3n2Cc2ccccc2)cc1 | inactive: -20.7%
CC1Cc2cc(S(=O)(=O)CCC(=O)Nc3ccc(Cl)cc3F)ccc2N1C(=O)C1CC1 (configuration not stated) | inactive: 8.85%
CC(C)Oc1ccc(C(=O)Nc2ccc(-c3nc4ccccc4s3)cc2)cc1 | inactive: 5.64%
COc1ccc(CCNC(=O)CCc2c(C)c3cc4c(C)coc4cc3oc2=O)cc1 | inactive: 33.8%
Cc1ccccc1Cn1c(CN2CCN(c3cc(Cl)ccc3C)CC2)nc2c1c(=O)[nH]c(=O)n2C | inactive: -21.3%
O=c1cc[nH]c(=O)[nH]1 | inactive: 44.7%
COc1ccccc1C(=O)Nc1cc(-c2ccc(C)cc2)no1 | inactive: 7.4%
CCOc1ccc(CCNC(=O)CCn2c(=O)c3cccn3c3cccnc32)cc1 | inactive: 3.23%
Cc1ccc(Cl)cc1NC(=O)CCCN1C(=O)CCn2nc(-c3cn(C)c4ccccc34)cc21 | inactive: 4.34%
COc1ccc(C)cc1S(=O)(=O)NCC(c1ccc(N(C)C)cc1)N1CCc2ccccc21 (configuration not stated) | inactive: -22.5%

Compound | activation
COc1ccc(N2CCN(C(=O)c3cc4cc5ccc(Cl)cc5nc4o3)CC2)cc1 | inactive: -1.34%
CN(c1ccccc1)c1ncnc2c1cnn2C | inactive: -8.6%
O=C(O)c1ccc(N2C(=O)c3[nH]nc(-c4ccccc4)c3C2c2cccc(F)c2)cc1 (configuration not stated) | inactive: 18.9%
CCC(=O)Nc1ccccc1-c1nc2ccccc2n(C(C)C(=O)Nc2ccc(OC)cc2)c1=O (configuration not stated) | inactive: -18.2%
CCNc1nc(Oc2ccc(=O)n(-c3ccccc3)n2)nc(N(C)C)n1 | inactive: -11.3%
COc1cccc(-c2nc3c(c(C)nn3-c3ccccc3)c3cc(OC)c(OC)cc23)c1 | inactive: -8.11%
CCc1ccc(C2C(C(=O)Nc3ccc(Cl)cc3)=C(C)Nc3ncnn32)cc1 (configuration not stated) | inactive: -31.5%
Cc1ccc2c(c1)C(=O)OC(C(=O)Nc1ncc(Cc3ccccc3)s1)C2 (configuration not stated) | inactive: -7.76%
Cc1ccc(NC(=O)Cn2c(=O)oc3cc(S(=O)(=O)N4CCC(C)CC4)ccc32)cc1Cl | inactive: 44.5%
Cc1cc(NC(=O)N2CCC(CN3CCOCC3)CC2)ccc1Br | inactive: -3.4%
COc1cccc(C2C(=O)N(C3CCCCC3)CC(=O)N2Cc2ccc(Cl)cc2)c1 (configuration not stated) | inactive: -21.1%
COC(=O)c1nnn(CC(=O)NC(=O)Nc2ccccc2F)c1C(=O)OC | inactive: 8.59%
Cc1noc(NS(=O)(=O)c2ccc(NC(=O)c3ccc(Br)cc3)cc2)c1C | inactive: 12.6%
Cc1c(Cl)cccc1NC(=O)c1ccc2nc(C(C)C)oc2c1 | inactive: -2.43%
CCc1ccccc1Nc1nn2c(=O)c3ccc(C(=O)Nc4ccc(OC)cc4)cc3nc2s1 | inactive: 1.3%
CCN1CCC(N(Cc2ccc(F)cc2)C(=O)Nc2cccc(C(F)(F)F)c2)CC1 | inactive: -18.9%
O=C(CSc1nc2ccccc2nc1Cc1ccccc1)N1CCN(c2ccccc2)CC1 | inactive: -5.89%
Cc1cccc(NC(=O)NCCOCCn2c(=O)oc3ccccc32)c1C | inactive: -12.7%
CC(=O)Nc1cc(-c2ccccc2)nn1Cc1cccc(Cl)c1 | inactive: 14.7%
COc1cccc(CNC(=O)CCn2c(=O)c3cccn3c3cccnc32)c1OC | inactive: -12.2%
Cc1nn(CC(=O)NCC(C)c2ccccc2)c(=O)c2cc3ccccc3n12 (configuration not stated) | inactive: -12.9%
